According to publication PMC4336329 (PLoS ONE, 2015):
Hit rate of the full screen: of about 310,000 compounds, about 14,000 (4.5%) showed an effect of 50% or more. The effect is printed as a negative number. Some of the results follow.
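Also: peak tail current of the secondary pulse compared with the same well before compound.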

The compounds below were run against human ether-à-go-go-related gene (hERG) potassium channel (human, UniProt Q12809) (assay: primary screen, population patch clamp on CHO cells stably expressing hERG).
Sequence of human ether-à-go-go-related gene (hERG) potassium channel (Q12809 whole entry, looked up): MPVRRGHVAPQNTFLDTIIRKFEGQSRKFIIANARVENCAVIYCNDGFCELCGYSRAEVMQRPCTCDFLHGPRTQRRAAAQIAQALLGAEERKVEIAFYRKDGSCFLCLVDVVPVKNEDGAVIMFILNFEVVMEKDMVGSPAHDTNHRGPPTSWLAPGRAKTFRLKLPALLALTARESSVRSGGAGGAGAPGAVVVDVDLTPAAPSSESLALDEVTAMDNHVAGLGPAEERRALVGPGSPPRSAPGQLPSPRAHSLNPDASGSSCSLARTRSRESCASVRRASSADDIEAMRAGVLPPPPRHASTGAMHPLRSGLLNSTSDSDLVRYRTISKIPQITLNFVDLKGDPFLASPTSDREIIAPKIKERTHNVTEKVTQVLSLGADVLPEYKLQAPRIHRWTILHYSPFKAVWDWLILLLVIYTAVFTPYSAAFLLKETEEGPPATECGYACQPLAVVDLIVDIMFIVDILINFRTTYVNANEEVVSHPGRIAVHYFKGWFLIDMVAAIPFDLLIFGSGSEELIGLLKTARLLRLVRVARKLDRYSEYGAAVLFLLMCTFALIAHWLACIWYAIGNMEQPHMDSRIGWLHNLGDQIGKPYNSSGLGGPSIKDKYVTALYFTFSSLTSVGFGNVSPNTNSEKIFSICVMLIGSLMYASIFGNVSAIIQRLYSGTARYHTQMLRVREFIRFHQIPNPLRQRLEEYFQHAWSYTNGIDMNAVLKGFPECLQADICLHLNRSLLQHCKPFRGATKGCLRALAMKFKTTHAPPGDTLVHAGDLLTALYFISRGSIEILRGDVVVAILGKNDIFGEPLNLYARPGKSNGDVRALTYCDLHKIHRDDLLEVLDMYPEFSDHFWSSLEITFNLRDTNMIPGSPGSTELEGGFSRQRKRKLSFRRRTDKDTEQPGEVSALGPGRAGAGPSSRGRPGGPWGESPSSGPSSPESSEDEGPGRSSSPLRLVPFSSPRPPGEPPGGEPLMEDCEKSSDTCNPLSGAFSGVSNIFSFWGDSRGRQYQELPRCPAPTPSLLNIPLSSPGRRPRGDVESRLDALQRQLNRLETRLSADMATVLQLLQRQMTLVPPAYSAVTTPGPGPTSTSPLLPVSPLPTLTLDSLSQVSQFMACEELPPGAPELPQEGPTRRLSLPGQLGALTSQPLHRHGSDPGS
For `CC(=O)N1CCN(CCN=CC2=C(O)CC(c3ccco3)CC2=O)CC1` (centres unmarked), the “hERG current change (%, negative = inhibition) at 10uM” value was 1.17%. `Cc1ccc2c(c1)N(C)/C(=C/c1cccc[n+]1CCO)S2.[I-]` was tested, and the “hERG current change (%, negative = inhibition) at 10uM” value was -9.09%. In the case of `CN(C(=O)c1ccc(=O)[nH]c1)C1(C(=O)NC2CCCCC2)CCCCC1`, the “hERG current change (%, negative = inhibition) at 10uM” value is reported as 11.4%. `Cc1ccc(OCC(=O)c2ccc(Cl)s2)c([N+](=O)[O-])n1` was tested, and the “hERG current change (%, negative = inhibition) at 10uM” value was 2.66%. For `CCC(=O)Nc1nnc(SCC(=O)N2c3ccccc3CC2C)s1` (centres unmarked), the “hERG current change (%, negative = inhibition) at 10uM” value was 5.26%. With `CCC(C(=O)OCC(=O)Nc1c(C)n(C)n(-c2ccccc2)c1=O)c1ccccc1` (centres unmarked) the “hERG current change (%, negative = inhibition) at 10uM” value was -6.14%. In the case of `COCC(=O)N(C)C1(c2nnnn2CCOC(=O)Nc2ccc(Cl)cc2)CCCCC1`, the “hERG current change (%, negative = inhibition) at 10uM” value is reported as 12.1%. In the case of `CCOc1ccc(C(C)NC(=O)c2ccccc2F)cc1` (centres unmarked), the “hERG current change (%, negative = inhibition) at 10uM” value is reported as 7.87%. For `COCc1nnc(NS(=O)(=O)c2ccc(F)cc2)s1`, the “hERG current change (%, negative = inhibition) at 10uM” value was 0.955%. In the case of `CCCC1=NN2C(=N)/C(=C\c3ccc(OCCOc4ccc(NC(C)=O)cc4)c(OC)c3)C(=O)N=C2S1`, the “hERG current change (%, negative = inhibition) at 10uM” value is reported as 10.8%. `CC(C)CN(CC(C)C)C1=N/C(=C\c2ccco2)C(=O)N1c1ccccc1` was tested, and the “hERG current change (%, negative = inhibition) at 10uM” value was 17.7%. `Cc1cc[n+](CC(=O)c2ccc3c(c2)OCCO3)cc1.[Br-]` was tested, and the “hERG current change (%, negative = inhibition) at 10uM” value was -22.2%. For `CC(=O)NNc1nc2ccccc2s1`, the “hERG current change (%, negative = inhibition) at 10uM” value was -7.64%. `CS(=O)(=O)c1ccc(Cl)c(S(=O)(=O)NCc2ccccc2)c1` was tested, and the “hERG current change (%, negative = inhibition) at 10uM” value was 11.9%. In the case of `Cc1ccc(CSc2nnc(NC(=O)C3=COCCO3)s2)cc1`, the “hERG current change (%, negative = inhibition) at 10uM” value is reported as -0.208%. In the case of `Cc1nnc(NC(=O)c2cccc(S(=O)(=O)N3CCN(C)CC3)c2)s1`, the “hERG current change (%, negative = inhibition) at 10uM” value is reported as 5.24%. For `Brc1ccc(NCc2nnc3n2CCCCC3)cc1`, the “hERG current change (%, negative = inhibition) at 10uM” value was -18.7%. For `CCOc1ccc2nc(N=NC3=C(O)CC(C)(C)CC3=O)sc2c1`, the “hERG current change (%, negative = inhibition) at 10uM” value was 1.04%. With `CC(C)Oc1ccc(C(=O)NCCCNC(=O)c2cccnc2)cc1` the “hERG current change (%, negative = inhibition) at 10uM” value was -4.05%. `COc1ccc(NC(=O)CCCNC(=O)Cn2cnc3sc4c(c3c2=O)CCCC4)cc1OC` was tested, and the “hERG current change (%, negative = inhibition) at 10uM” value was 22.1%. With `COc1ccc(NC(=O)c2nc[nH]c2C(=O)NCc2ccccc2)cc1` the “hERG current change (%, negative = inhibition) at 10uM” value was 16.7%. With `COc1cc(C=O)ccc1OCC(=O)N1CCCC1` the “hERG current change (%, negative = inhibition) at 10uM” value was 18.9%. For `Cc1cccc(Nc2c(-c3ccc(O)cc3)nc3ncccn23)c1`, the “hERG current change (%, negative = inhibition) at 10uM” value was -25.5%. `O=C(CSc1nc2ccccc2c(=O)n1Cc1ccco1)c1ccc(F)cc1` was tested, and the “hERG current change (%, negative = inhibition) at 10uM” value was 9.22%. With `COc1cccc(NC(=O)CN(C)C(=O)c2cc(C3CC3)nn2-c2ccccc2)c1` the “hERG current change (%, negative = inhibition) at 10uM” value was -23.1%. In the case of `C=CCNc1nc(C(=O)OCC(=O)c2ccccc2)cs1`, the “hERG current change (%, negative = inhibition) at 10uM” value is reported as 13.6%. For `Cc1[nH]c2ccccc2c1C(O)CN1CCN(c2cccc(C(F)(F)F)c2)CC1` (centres unmarked), the “hERG current change (%, negative = inhibition) at 10uM” value was -17.8%. `Cc1ccc(NC(=O)COC(=O)CNC(=O)c2ccco2)cc1` was tested, and the “hERG current change (%, negative = inhibition) at 10uM” value was 6.01%. With `Cc1ccc2[nH]c(O)c(N=NC(=O)CCc3ccccc3)c2c1Br` the “hERG current change (%, negative = inhibition) at 10uM” value was 10.5%. `O=C(c1ccccc1)N1CCc2ccccc21` was tested, and the “hERG current change (%, negative = inhibition) at 10uM” value was -2.69%. For `COCCCNc1nc2cc(OC)c(OC)cc2c2nc(-c3ccccc3)nn12`, the “hERG current change (%, negative = inhibition) at 10uM” value was 24.7%. In the case of `Cc1ccc(-c2csc3ncn(CC(=O)N4CCOCC4)c(=O)c23)cc1`, the “hERG current change (%, negative = inhibition) at 10uM” value is reported as -5.93%. `CCOc1ccc(CN2CCN(Cc3ccsc3)C(CCO)C2)cc1CO` (centres unmarked) was tested, and the “hERG current change (%, negative = inhibition) at 10uM” value was -39.4%. With `CN(CCC#N)C(=S)Nc1ccc(Oc2ccccc2)cc1` the “hERG current change (%, negative = inhibition) at 10uM” value was -28.6%. For `CCc1nnc(NC(=O)CCC(=O)O)s1`, the “hERG current change (%, negative = inhibition) at 10uM” value was -1.7%. With `O=C(CNC(=O)[C@@H]1Cc2ccccc2CN1)Nc1ccc2c(c1)OCO2` the “hERG current change (%, negative = inhibition) at 10uM” value was 4.64%. In the case of `O=C1c2ccccc2C(=O)N1CCC1=CCCCC1`, the “hERG current change (%, negative = inhibition) at 10uM” value is reported as 8.04%. `CCOC(=O)c1ccc(-n2c(-c3ccco3)nc3ccccc3c2=O)cc1` was tested, and the “hERG current change (%, negative = inhibition) at 10uM” value was -2.14%. For `CSc1nc(C)cc(OCC(=O)N/N=C/c2ccccc2O)n1`, the “hERG current change (%, negative = inhibition) at 10uM” value was 11.9%. For `CCOc1cc(NC(=S)NCCCN2CCOCC2)c(OCC)cc1NC(=O)C1CCCCC1`, the “hERG current change (%, negative = inhibition) at 10uM” value was -11.2%. For `C/C(=N\N1C(=O)c2ccccc2C1=O)c1cccc([N+](=O)[O-])c1`, the “hERG current change (%, negative = inhibition) at 10uM” value was 4.83%. `O=C(Nc1ccc2c(c1)OCO2)C1CCN(Cc2cc3c(cc2O)OCO3)CC1` was tested, and the “hERG current change (%, negative = inhibition) at 10uM” value was -33.5%. For `Cc1noc(C(=O)Nc2ccccc2C(F)(F)F)c1Cl`, the “hERG current change (%, negative = inhibition) at 10uM” value was -5.43%. `Fc1ccc(CNn2cnnc2SCc2ccc(F)cc2)cc1` was tested, and the “hERG current change (%, negative = inhibition) at 10uM” value was -22.9%.
